Our source for the switch fluorescence ratio values is the supplement of paper PMC10126150.

Values marked as one replicate rest on one cluster of the flow cell; about a third of the high ones do not repeat.
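Further: ATP exposure 15 min at 22 °C before imaging.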

This data set relates to ATP. The data set is described as follows: switch fluorescence ratio, 500 uM ATP over buffer (Cy3 cluster intensity, sum of 5 cycles each) (fold (ratio)); higher = stronger signal-on switching upon ATP binding; sequences stand for … in TCGTCGGCAGCGTCAGATGTGTATAAGAGACAGTTTTTTTTTTTTTTTTTTTTTTTTT…TC. As to conditions: aptamer strand: ATP DNA aptamer (quencher-CACCTGGGGGAGTATTGCGGAGGAAGG + anchor), 100 nM annealed; ATP concentration: 500 uM; one replicate. In short, it runs like this:
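The quencher-labelled ATP aptamer, at 100 nM, was annealed to Cy3-labelled switching-strand clusters on a modified Illumina MiSeq flow-cell. The clusters were imaged in selection buffer, then after 15 min with 500 uM ATP at 22 °C, and this buffer/ATP cycle ran five times with NaOH stripping and re-annealing between runs. Per-cluster fluorescence ratios, summed target-cycle over summed buffer-cycle Cy3 intensity, were averaged per switch-domain sequence. Clusters outside 100-1000 RFU were excluded.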
On to GACCGA, for which the switch fluorescence ratio is 1.06.
Turning to CAGTAAGAGA, the switch fluorescence ratio was 0.998.
Next, TGCGGCGATT: 1.04; ACAAAAGCGA: 0.949.
The figure for GCTTGATTAC is 0.988; for GCACGCCTTT it is 1.06.
Take CAGACAATAG: the switch fluorescence ratio turned out to be 1.1.
The figure for GGCGGTCATA is 0.998; for CGTTGTA it is 0.996; for GTGATGACCG it is 0.994.
The figure for TCATTTTTGA is 1.
The figure for GACAACTTAG is 1.03.
On to CTAAAAAACC, for which the switch fluorescence ratio amounted to 1.16.
The figure for TTTCGTGGTA is 0.973; for TACACTGCTG it is 1.03.
Next, AGATACTCG: 1.1.
For the sequence TAGCTTTCTT, the switch fluorescence ratio amounted to 0.978.
Next, CGTATTCCAG: 0.991; CTGGACGTTT: 0.951.
Take GGGCACCTCT: the switch fluorescence ratio is 0.991.
The figure for AGTTCCATTG is 0.94; for GCCGGCGGC it is 1.05; for TACTGCGAGG it is 0.994.
The figure for GCTGATCATT is 0.981; for TTTAAAT it is 0.99.
Take AATGAGGTAC: the switch fluorescence ratio is 1.
Next, ATTCCTCGTA: 1.11; ACCAACTCGG: 1.07.
Next, GGAAGATCAG: 1; AAGTCCAAAC: 0.964; GGAGGATTAA: 0.973.
Next, CGCATCCTAA: 1.1; GCGCCCTGAG: 1.05; ATTTACAGCA: 1.04.
As to AGTATAGGC, the switch fluorescence ratio is 0.956.
The figure for TCGCAGGTTG is 1.02; for TGACGGTGG it is 1.04.
The figure for TCTCCGGGCG is 1.31.
For the sequence AATAAGAGTC, the switch fluorescence ratio turned out to be 1.06.
The figure for GAACACGATT is 0.998; for GACAGCCGTT it is 1.01; for TCAGACCA it is 1.01.
The figure for ACGGTAAGTC is 1.11; for AGGGACCCAA it is 0.997.
Next, CGTGGCAAGT: 1.04; GACGAGAAAT: 1.74; GATCCCTAAT: 1.03.
Turning to TCACGGAGGT, the switch fluorescence ratio amounted to 1.01.
Next, GCCAGTGACG: 1.09; GAAACCGTTT: 1.04.
TGATCGGCCT: the switch fluorescence ratio stood at 0.995.
The figure for TAAGTTAAGG is 0.996.
As to AAGGGTAGGT, the switch fluorescence ratio was found to be 1.03.
The figure for ACATACACCT is 1.33.
The figure for AACCAATGTA is 0.98.
Next, TTTATCAAAT: 1.05.
In the case of GAAAGGCACC, the switch fluorescence ratio is 1.03.
Take GACAATTCCG: the switch fluorescence ratio was 1.02.
Regarding TGGTTAGGTA, the switch fluorescence ratio was determined as 1.06.
With GAGGAGAGGA, the switch fluorescence ratio is 0.971.
The figure for AGAGCTGACT is 0.956; for CTTGTGTCGC it is 1.
The figure for CGCAGGGTAA is 1.03; for GCCCGTAGAG it is 1.03; for TCACGCGGTA it is 1.08.
The figure for AATTAATCCG is 1.03; for TGGGGGAGT it is 0.98.
ACTTAATAAA: the switch fluorescence ratio came out at 0.998.
With GGGCCAGAAA, the switch fluorescence ratio came out at 0.922.
The figure for TTCGTATGGT is 0.965.
Turning to AAAAGTTG, the switch fluorescence ratio stood at 1.08.
For TCGTACCCCG, the switch fluorescence ratio amounted to 1.01.
The figure for CCGCATCGTG is 1.98; for GGCGCCCCAG it is 1.03.
Next, CGAACACGGA: 0.976.
Take TTTTTACCGC: the switch fluorescence ratio worked out at 1.2.
As to GTTAGGCTG, the switch fluorescence ratio was determined as 0.955.
The figure for GTGTGGCAGC is 0.953.
Next, ATTTACGAAA: 1.08; GTCCCTGGGC: 0.986; TCAAATATTG: 0.963.
Regarding TTAATGCACG, the switch fluorescence ratio is 1.12.
In the case of GTGTATTCTT, the switch fluorescence ratio worked out at 0.997.
The figure for CGCGCAGTG is 1.07; for GGCAGCATTA it is 1.14; for GTCGTGAGAA it is 0.995.
Next, GTACTCTTTT: 0.97.
Next, TCCTCGTTG: 1.
With ATGATGGTAC, the switch fluorescence ratio was 1.02.
Turning to GTGAATGGCC, the switch fluorescence ratio turned out to be 1.06.
As to TCGAAATTGC, the switch fluorescence ratio was 1.15.
Next, TATTAAGTCC: 1.02.
Next, AGGGCGACTT: 1.02; AGAAGGAAGT: 1.01.
Next, GAGCCGCGGA: 1.
Take GTTCACGGAA: the switch fluorescence ratio amounted to 1.02.
With GATTCGGCGG, the switch fluorescence ratio came to 1.01.
Next, TCAGCTTTCG: 1.02; AATGCCGGTC: 0.859; ATCCGAGACT: 1.06.
The figure for AGTGCGGGG is 0.988; for AGAAAAAGTA it is 1.03; for AGTATATCCC it is 0.993.
As to CTTTCAAAAT, the switch fluorescence ratio was determined as 0.996.
Next, GGTCCACTTT: 1.01; CTAATGAATC: 0.985; CGGGATGCGG: 0.955.
For the sequence CACTCAATTG, the switch fluorescence ratio turned out to be 1.03.
Next, TGTTTAGACA: 0.993.
The figure for ATCAGTGAGT is 0.983; for CCACCCGAAG it is 1.33; for ACTGAGAGGG it is 0.982.
The figure for TGGAGTAAA is 2.81; for AAAGAAAACG it is 1.08; for TTAGGACACG it is 0.957.
For the sequence CGTTATCGCT, the switch fluorescence ratio turned out to be 0.971.
Turning to TATCACACAT, the switch fluorescence ratio came to 1.07.
The figure for TGCTTGGTTC is 0.95.
Next, GGGGCAACCG: 0.983; ATCAGTTCGA: 0.989; AGACACTGTA: 1.2.
